A word on the Kd: it is the constant that tells how readily two partners part at equilibrium. As a reminder, the koff is the first-order rate constant of dissociation. What is called kon is a measure of how fast the partners come together. Usually EC50 stands for the concentration that produces a half-maximal response.

Test [1] deals with T1, human PD-L1-HIS tagged recombinant protein (human, UniProt Q9NZQ7 fragment).
T1 construct: also called hPD-L1-HIS; PD-L1 HIS tagged protein
Nature of the test: SPR, Protein A capture, PD-L1-HIS analyte.

The target in test [2] is T2, recombinant His-tagged human IL-2Rβ (human, UniProt P14784 27-240, limits assumed).
T2 construct: also called IL-2Rβ-HIS; IL-15Rβ-HIS
T2 sequence (looked up): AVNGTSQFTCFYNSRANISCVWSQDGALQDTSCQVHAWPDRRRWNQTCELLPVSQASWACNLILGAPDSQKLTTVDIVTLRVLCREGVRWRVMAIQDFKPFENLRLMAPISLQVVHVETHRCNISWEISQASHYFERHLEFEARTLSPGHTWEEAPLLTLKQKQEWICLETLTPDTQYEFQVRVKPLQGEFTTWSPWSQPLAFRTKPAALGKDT
Nature of the test: SPR, Protein A capture, IL-15Rβ-HIS analyte. The protocol:
Note, the IL-15 receptor shares the same Beta subunit with IL-2 receptor. Therefore, IL-15Rβ is also referred to as IL-2Rβ and CD122. The assay was run with Biacore T200 control software version 2.0. […] The flow cells were then regenerated with Glycine pH 2 for 60 seconds at flow rate of 30 μl/min. […] The specific binding response unit was derived from subtraction of binding to reference flow cell 1 from antibody captured flow cell 2.

Test [3] deals with T1, human PD-L1-HIS tagged recombinant …. Nature of the test: ELISA, coated PD-L1-HIS, anti-Human HRP. On the procedure: The plate was incubated overnight at 4° C. followed by blocking with 80 μL of superblock per well for 1 hour. […] In between each step, the plate was washed 3 times with 1×PBST in a plate washer. […] The plate was read at OD450 nm Biotek plate reader and then plotted in Prism 8.1 software to calculate EC50.

The target in test [4] is PD-L1 on PD-L1 aAPC/CHOK1 cells (Promega J1250). Kind of test: cell-based or functional assay.

B1: anti-PD-L1 scFv/IL-15 fusion EP207/EP208 (bispecific antibody)
chain 1: QVQLVQSGAEVKKPGSSVKVSCKASGGTFSSYAISWVRQAPGQGLEWMGGIIPIFGTANYAQKFQGRVTITADESTSTAYMELSSLRSEDTAVYYCARDKWYGSAWRGDYWGQGTLVTVSSGGGGSGGGGSGGGGSQSVLTQPPSASGTPGQRVTISCSGSYSNIGSNFVNWYQQLPGTAPKLLIHFNNQRPSGVPDRFSGSRSGTSASLAISGLQSEDEADYFCSTWDDSLKGPIFGGGTKLTVLDKTHTCPPCPAPELLGGPSVFLFPPKPKDTLMISRTPEVTCVVVDVSHEDPEVKFNWYVDGVEVHNAKTKPREEQYNSTYRVVSVLTVLHQDWLNGKEYKCKVSNKALPAPIEKTISKAKGQPREPQVYTLPPCRDELTKNQVSLWCLVKGFYPSDIAVEWESNGQPENNYKTTPPVLDSDGSFFLYSALTVDKSRWQQGNVFSCSVMHEALHNHYTQKSLSLSPGKGGGGSGGGGSGGGGSGGGG[letters of about 120 residues omitted]
chain 2: QVQLVQSGAEVKKPGSSVKVSCKASGGTFSSYAISWVRQAPGQGLEWMGGIIPIFGTANYAQKFQGRVTITADESTSTAYMELSSLRSEDTAVYYCARDKWYGSAWRGDYWGQGTLVTVSSGGGGSGGGGSGGGGSQSVLTQPPSASGTPGQRVTISCSGSYSNIGSNFVNWYQQLPGTAPKLLIHFNNQRPSGVPDRFSGSRSGTSASLAISGLQSEDEADYFCSTWDDSLKGPIFGGGTKLTVL[letters of human IgG1 Fc with Y349C T366S L368A F405K Y407V (EU numbers) omitted]GGGGSGGGGSGGGGSGGGGSITCPPPMSVEHADIWVKSYSLYSRERYICNSGFKRKAGTSSLTECVLNKATNVAHWTTPSLKCIRDP
notes: also called anti-PD-L1-scFv-Fc/IL-15
For B1, in test [1], the Kd is 0.509 nM, the koff came out at 0.00047 s⁻¹ and the kon worked out at 923000 M⁻¹ s⁻¹. Further, in test [2], the Kd was 63 nM, the koff is 0.0298 s⁻¹ and the kon amounted to 473000 M⁻¹ s⁻¹. In addition, the EC50 in test [3] worked out at 0.11 nM. The “NFAT reporter EC50” value in test [4] was determined as 2.3 nM.

These data come from patent US20250340646A1 (ELPIS BIOPHARMACEUTICALS, published 2025).
